Some of the results follow. At the low end of the ranking the order means little.

The assay has as its target SIX1-Q177R homeodomain (UniProt Q15475). Put plainly: universal protein binding microarray. To be noted: Universal all-10-mer PBM (8x60K, AMADID 030236), 300 nM GST-tagged protein, Alexa Fluor 488 anti-GST; buffer, salt, pH and temperature not stated; high values mean tight binding; most listed sequences are background and not binding sites; double strand, one strand shown.
For the sequence ACCGAGAA, the binding signal was -0.0339 E-score. To CATCTTGG belongs 0.0751 E-score; to GTTATTAA, -0.15 E-score.

With CCATCGCA, the binding signal is -0.114 E-score.

With GACATCGC, the binding signal is -0.203 E-score.

As for GTTTCGTA, the binding signal is -0.116 E-score. Regarding AATCGTCG, the binding signal was -0.136 E-score. In the case of ACTATGTA, the binding signal is -0.0297 E-score.

On to CGAGTTCC, for which the binding signal came out at 0.0437 E-score. As to GACCTCAC, the binding signal is 0.161 E-score. To AGAGATCG belongs -0.0739 E-score; to CGGACTGC, -0.0679 E-score. Turning to CCCCCGTA, the binding signal stood at 0.155 E-score. Consider CCTGTCCA, for which the binding signal was -0.165 E-score. AGGTAGGG: the binding signal came out at 0.112 E-score. Regarding CTATCATC, the binding signal was -0.0362 E-score. Regarding TCGACCGA, the binding signal was -0.197 E-score. Consider ATAGTATC, for which the binding signal worked out at 0.105 E-score. In the case of ATAATTAA, the binding signal was -0.143 E-score. Next, CTATTAGC: -0.0241 E-score. On to GCATAGAC, for which the binding signal is -0.0541 E-score. With CCATTGCC, the binding signal was -0.0763 E-score. As for CCGCTCCG, the binding signal was 0.063 E-score. Regarding AAGATTTG, the binding signal was -0.228 E-score.

CTTACGAC: the binding signal was -0.00224 E-score. Turning to ACTCGGAA, the binding signal turned out to be 0.021 E-score. As for GTGCAGCA, the binding signal was determined as 0.0986 E-score. Turning to ACACCTCA, the binding signal is 0.452 E-score. Consider CATGCCCC, for which the binding signal is -0.116 E-score.

Consider AAAAAATA, for which the binding signal was -0.174 E-score.

On to AAACCTCA, for which the binding signal was -0.0721 E-score. For the sequence CATTCTTC, the binding signal was -0.235 E-score. As to AAAGTCAT, the binding signal is -0.244 E-score.

Consider ATCGATAA, for which the binding signal was -0.0469 E-score. For the sequence ACACCATC, the binding signal is 0.467 E-score. On to ATGCGCTA, for which the binding signal is -0.224 E-score.

For the sequence CGAACCAC, the binding signal worked out at 0.0111 E-score. Regarding AGCTAGCG, the binding signal is -0.151 E-score. Take CAGCAACG: the binding signal was -0.22 E-score. AAAAGAGC: the binding signal was -0.14 E-score.

For GGATAGCA, the binding signal is -0.0589 E-score. With ATGATAGG, the binding signal is -0.0953 E-score. As to CTGAAATC, the binding signal is -0.139 E-score. As for GCGTCGAA, the binding signal was -0.0307 E-score.

Take AACAACTA: the binding signal was -0.0547 E-score. In the case of TAGTTGAA, the binding signal is -0.158 E-score.

As to AGCTAGAC, the binding signal is -0.322 E-score. For AAGTCGTC, the binding signal is -0.105 E-score. Consider AACTACTG, for which the binding signal was -0.0839 E-score. Regarding AAGAGTGG, the binding signal was -0.135 E-score.

On to TTATACAA, for which the binding signal is -0.0458 E-score.

As for GGTACCTA, the binding signal stood at 0.106 E-score. On to AGGGCCTC, for which the binding signal is -0.156 E-score. On to GAACTTAA, for which the binding signal was -0.0651 E-score. In the case of GGTACGGA, the binding signal was determined as 0.0763 E-score. AAAAAGTA: the binding signal was -0.151 E-score. In the case of GGTTGTAA, the binding signal was -0.0448 E-score. Next, AGACCCGA: 0.122 E-score; CAGGCAGG: 0.186 E-score; ATCCCCTA: 0.0216 E-score. Take ATTACCAC: the binding signal is -0.0265 E-score.

On to AGAATGAC, for which the binding signal was determined as 0.00032 E-score.

GACCTTGC: the binding signal is -0.125 E-score. Regarding GACAGCGA, the binding signal is -0.2 E-score.

As to ATCGTAGG, the binding signal came to 0.0661 E-score. To AGACCACG belongs -0.326 E-score. Turning to GACTAGCA, the binding signal is -0.0929 E-score. Take GCGGTGCA: the binding signal came to 0.14 E-score. As to AGAACGTG, the binding signal was -0.0396 E-score. To AGTCGGAA belongs -0.0412 E-score; to AGTTGCCA, -0.263 E-score; to GGAAGTAA, -0.126 E-score. Take AGGTTATG: the binding signal was -0.145 E-score. AAGGAGGC: the binding signal was -0.247 E-score. As to GCATCTCC, the binding signal was -0.197 E-score. Turning to ATCCGCCC, the binding signal is 0.106 E-score. ACGTGACT: the binding signal is -6.5e-05 E-score. For the sequence CTATCGCA, the binding signal was -0.0514 E-score. As to ACAGGCTA, the binding signal is -0.092 E-score.

For ATATAGGC, the binding signal was -0.0333 E-score. As for CTACGATC, the binding signal amounted to 0.00133 E-score. As for ACAATAGC, the binding signal is -0.138 E-score.

As for GCGTTATA, the binding signal stood at 0.107 E-score. With CCTGCTCC, the binding signal amounted to 0.00881 E-score.

Regarding ACATGAGC, the binding signal is -0.276 E-score. As to CCAAAGTA, the binding signal is -0.151 E-score. Take TAACCTCA: the binding signal is -0.11 E-score. Next, CGTTTTCC: -0.141 E-score. To ACTTTAAC belongs -0.0727 E-score; to AGTCGGAC, -0.236 E-score; to CATACTCG, -0.00443 E-score. In the case of GGCTGGAC, the binding signal is -0.258 E-score.

In the case of ACTGGGTG, the binding signal came out at 0.319 E-score. With CACGACCC, the binding signal was 0.32 E-score.

In the case of GCGCTACA, the binding signal was -0.0757 E-score. Next, CACATGAA: 0.0146 E-score. On to CATGAATG, for which the binding signal was -0.0745 E-score.

Take AATTCGAA: the binding signal is -0.243 E-score.

In the case of CGAGATCA, the binding signal was determined as 0.0229 E-score. As to AGCAGAGC, the binding signal was -0.317 E-score.

Consider AACTCCTA, for which the binding signal was -0.0855 E-score.

As to GGACAAAC, the binding signal was -0.0197 E-score. To AAACATAC belongs -0.0734 E-score; to GAAAAGCC, -0.187 E-score.

Consider CAGCCCAG, for which the binding signal was 0.0853 E-score.

As for ACCACAAG, the binding signal was found to be 0.0322 E-score. Next, AACTTCCC: -0.211 E-score.

Take AGTAGTTG: the binding signal is -0.0276 E-score.

Turning to ATAAGATC, the binding signal was -0.202 E-score. For AGTCCGCA, the binding signal is -0.228 E-score. As to CGCTAAAA, the binding signal is -0.0709 E-score. In the case of AACTTTGT, the binding signal is -0.133 E-score. Take CTCGCCGA: the binding signal was -0.0707 E-score. Consider ATCCCTTA, for which the binding signal was determined as 0.0579 E-score. For the sequence CTATATAC, the binding signal amounted to 0.11 E-score.

For ACCAATTA, the binding signal worked out at 0.122 E-score. As to ACCGGGGC, the binding signal came out at 0.0343 E-score. As to ATGCCAGG, the binding signal is -0.135 E-score. To ACCTCCAG belongs -0.0173 E-score; to GCTCTCCA, -0.214 E-score. As for CTTCGGTA, the binding signal was -0.0623 E-score. As for ATTGTCCA, the binding signal is -0.0882 E-score. In the case of GTTTAAGA, the binding signal was -0.0559 E-score. For the sequence GCTGCAAC, the binding signal worked out at 0.094 E-score. As to AAATCCGA, the binding signal is -0.178 E-score. To CAAAATTG belongs -0.0384 E-score; to CGACCAAG, -0.104 E-score; to ATCACGGA, -0.0136 E-score.

Regarding AGTGCCTA, the binding signal is -0.0789 E-score. Turning to GTAGCAAA, the binding signal was -0.08 E-score.

For the sequence AGTCAATC, the binding signal is -0.126 E-score. To AGATAACT belongs -0.0253 E-score; to ATTCAATG, -0.0935 E-score. For ATGCAATA, the binding signal turned out to be 0.0154 E-score. As to AACACCCC, the binding signal is 0.475 E-score.

For the sequence GAGCTCGC, the binding signal is -0.171 E-score. CGAACACA: the binding signal was found to be 0.215 E-score. For the sequence GTGGGTGA, the binding signal was -0.00233 E-score. With ACATAGCA, the binding signal was -0.124 E-score. For ATACTAAT, the binding signal turned out to be 0.036 E-score. Turning to GCCGAACC, the binding signal is -0.284 E-score. ATCACCTC: the binding signal was determined as 0.0216 E-score.

For the sequence AAGCTAGC, the binding signal is -0.255 E-score. Take CCCGGGGA: the binding signal came out at 0.206 E-score.

Turning to CGATAGCG, the binding signal was -0.0241 E-score.

As to ATCCCCCG, the binding signal turned out to be 0.266 E-score. To TATTCTAA belongs 0.213 E-score; to GCCGTCTA, -0.0126 E-score; to GGGCACAC, 0.284 E-score.

ACCCTAGT: the binding signal was 0.269 E-score.

With CAGCTCAG, the binding signal was -0.048 E-score. For the sequence GAGGATCA, the binding signal was determined as 0.126 E-score. Turning to ACCCGCCG, the binding signal was found to be 0.258 E-score. As for CATGCAGG, the binding signal was -0.0296 E-score. With CAGTAAGG, the binding signal is -0.052 E-score. To CGGTATAG belongs -0.132 E-score; to ATACCGAA, 0.0841 E-score. CGCGATTA: the binding signal was 0.0154 E-score.

For AAGAGGCT, the binding signal is -0.123 E-score. To TAAAAGTA belongs -0.179 E-score. As for AACAGGTT, the binding signal is -0.181 E-score.

As for TCTATCCA, the binding signal was -0.107 E-score.

As to TATCGCAA, the binding signal amounted to 0.0311 E-score. Next, ATTAGGGA: -0.18 E-score; AAATAGAC: 0.04 E-score. Regarding TCTTAACA, the binding signal turned out to be 0.202 E-score. As to ATCACATC, the binding signal is -0.0874 E-score.

In the case of CAAAGGGG, the binding signal was 0.188 E-score. Next, GTATCCAC: 0.287 E-score; GTTGAACA: 0.016 E-score; AACTCGCT: -0.0561 E-score. Turning to CTTGGATA, the binding signal is -0.102 E-score.
